# Reference: PubChem BioAssay AID1240 (Sanford-Burnham Center for Chemical Genomics, 2008)
# Hit rate of the full screen: of about 50,000 compounds, about 800 (1.6%) showed an effect of 50% or more. This is one part of the list.
# Biological target: Bcl-2-like protein 10 (Homo sapiens) (UniProt Q9HD36)
# Experiment: TR3 peptide-Bcl-B binding displacers, biochemical primary FP assay, phenotype converters (AID 1240);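 also: 0% = Bcl-B with tracer peptide and DMSO and 100% = tracer peptide lacking Bcl-B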
# Details: GST-Bcl-B / FITC-TR3 peptide fluorescence polarization; stronger effect = higher value; compound at 3.75 mg/L
# Sequence of UniProt Q9HD36 (Q9HD36 whole entry, looked up): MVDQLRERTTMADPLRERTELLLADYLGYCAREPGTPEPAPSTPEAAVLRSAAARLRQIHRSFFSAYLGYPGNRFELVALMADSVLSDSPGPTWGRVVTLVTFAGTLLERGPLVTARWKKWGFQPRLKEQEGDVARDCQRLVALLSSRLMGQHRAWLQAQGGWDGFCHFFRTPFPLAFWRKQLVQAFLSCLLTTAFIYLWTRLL
row,Compound,displacement [%]
1,O=C(CSc1nc(O)c(Cc2ccccc2)c(=O)n1-c1ccccc1)N1CCOCC1,-3.4
2,O=C(COc1ccc(Cl)cc1Br)NCc1cccnc1,0.4
3,O=C(c1cccnc1)N1CCN(C/C=C/c2ccccc2)CC1,1.4
4,CCOC(=O)COc1ccc(-c2nc3sc(C)c(C)c3c(=O)[nH]2)cc1OCC,29.1
5,O=C(N/N=C/c1cc(Br)c(Br)o1)C(O)(c1ccccc1)c1ccccc1,-10.3
6,CCOc1ccc(Nc2ncnc3c2oc2ccccc23)cc1,0.5
7,COc1ccc(C2SCCN2S(=O)(=O)c2ccc3ccccc3c2)cc1 (stereo not given),-11.2
8,Cc1ccc(C2(c3ccc(C)cc3)CC2C(=O)Nc2cccnc2)cc1 (stereo not given),1.2
9,O=C(c1cccnc1)N1N=C(c2ccccc2)CC1(O)C(F)(F)C(F)(F)C(F)(F)F (stereo not given),-25.9
10,Cc1cc(C)c(OCCCN2CCOCC2)c(Cl)c1,4.9
11,C=CCNC(=O)C1(c2ccccc2)CC1(Cl)Cl (stereo not given),-15.5
12,O=C1CSC(c2cccc(Cl)c2Cl)N1 (stereo not given),1.3
13,CCOc1ccc(N2C(=O)C=CC2=O)c([N+](=O)[O-])c1,11.7
14,CP(=O)(c1ccc(C(N)=O)cc1)c1ccc(C(N)=O)cc1,0.4
15,N#CC1=C(SCC(N)=O)NC(=O)CC1c1cccs1 (stereo not given),3.6
16,Cc1ccc(NC(=O)c2cc3c(C)nn(-c4ccccc4)c3s2)c(C)c1,12.4
17,O=C1N/C(=N\N=C\c2ccccc2)S/C1=C\c1ccccc1,37.5
18,O=C1NC(=O)C(Nc2ccc(Cl)cc2)S1 (stereo not given),-4.8
19,O=C1NN(c2ccccc2)C(=O)/C1=C\c1cccc([N+](=O)[O-])c1,32.2
20,Cc1ccc(-c2csc(NC(=O)C3CC4CCC3C4)n2)cc1 (stereo not given),8.6
21,CC1=CC(C)(C)N(C(=O)C(Cc2ccccc2)N2C(=O)c3ccccc3C2=O)c2ccccc21 (stereo not given),-7.8
22,O=S(=O)(NC1CCCCCC1)c1cc(Cl)ccc1Cl,7.3
23,Cc1ccc(C(=O)c2c(C)oc3c2cc(O)c2ccccc23)cc1,0.5
24,Nc1c([N+](=O)[O-])cc(Cl)c2c1C(=O)c1ccccc1C2=O,-9.1
25,CS(=O)(=O)N(CC(=O)Nc1cc(Cl)cc(Cl)c1)c1cccc(Cl)c1,1.8
26,COc1ccc(S(=O)(=O)N(CCc2ccccc2)CC(=O)Nc2ccc(Br)cc2)cc1OC,9.4
27,Cc1ccc(-n2cnnn2)cc1-n1cnnn1,-2.1
28,C=CCN1C(=O)NC(=O)/C(=C/C=C/c2ccco2)C1=O,13.2

row,Compound,displacement [%]
1,CCOc1cc(-c2ccc(OC)cc2)[o+]c2c1ccc1ccccc12,6.2
2,O=C(Nc1ccccc1)/C(=C\c1cccs1)NC(=O)c1ccccc1,11.1
3,CCOC(=O)c1sc(N/N=C/c2ccccc2O)nc1C,-16.4
4,Cc1ccc(NC(=O)c2ccccc2N)cc1,-8.4
5,COc1ccc(CN2CCN(Cc3ccc(C)cc3)CC2)c(OC)c1OC,1.8
6,CC(=O)Oc1ccc(/C=c2/sc3nc4c(C)c(C)ccc4n3c2=O)cc1,-10.3
7,CCOC(=O)COc1c(Br)cc(/C=C(\C#N)c2nn(CCO)c(N)c2C#N)cc1OCC,-7.5
8,O=C(CN(CCc1ccccc1)S(=O)(=O)c1ccc(Cl)cc1)NCc1ccccn1,-17.4
9,COc1cc(/C=C2/SC(=S)N(CC(=O)O)C2=O)ccc1OCc1ccc(Cl)cc1Cl,18.5
10,Cc1cc([N+](=O)[O-])ccc1NC(=O)C(C)Oc1ccccc1 (stereo not given),8
11,COC(=O)C1=C(O)/C(=C/c2ccc(N(C)C)cc2)N=C1C,-30
12,COC(=O)C1=C(C)NC(C)=C(C(=O)OC)C1c1cn(-c2ccccc2)nc1-c1ccc(S(=O)(=O)N2CCOCC2)cc1,13.6
13,COc1cccc(CNc2ccc3c(c2)CCC3)c1OC,6.4
14,CNC(=O)OC12CC3CC(C)(CC(C)(C3)C1)C2,16.1
15,CC1=C(C(=O)OC2CCCC2)C(c2ccc(-c3ccccc3)cc2)C2=C(CCCC2=O)N1 (stereo not given),-6
16,COc1ccccc1N(CC(=O)NCCSCc1ccccc1)S(=O)(=O)c1ccccc1,-7.1
17,CCOc1cc(C2CC(=O)NC(C)=C2C(=O)OC)cc(Br)c1OC (stereo not given),10.6
18,Cc1cccc(NC(=O)/C(=C\c2cccs2)NC(=O)c2cccs2)c1,12.4
19,C=CCN1C(=O)/C(=C\c2ccc(SC)cc2)C(=O)NC1=S,-4.1
20,CCOC(=O)c1ccccc1NC(=O)CC(c1ccccc1)c1ccccc1,7.3
21,Cc1cc([N+](=O)[O-])ccc1-c1ccc(C(=O)Nc2ccc(O)c(-c3nc4ccccc4o3)c2)o1,7.1
22,COc1cc(C(=O)Nc2nc(C)c(C)s2)cc(OC)c1OC,8.1
23,O=C(CN1C(=O)/C(=C/c2ccccc2Cl)SC1=S)NCCc1ccccc1,5.3
24,O=c1[nH]c(=O)n(-c2cccc3ccccc23)c(O)c1/C=C1\C=Nc2ccccc21,-11.6
25,Cc1ccc2c(c1)c(-c1ccccc1)c(-c1ccccc1)n2CC(O)CN1C(=O)CSC1=O (stereo not given),11.4
26,Cc1ccc(C2/C(=C(\O)c3ccccc3)C(=O)C(=O)N2Cc2cccnc2)cc1 (stereo not given),-8.8
27,C/C(=N\OCC(=O)N/N=C/c1cc(Cl)cc(Cl)c1O)c1cccs1,11.1
